Measured values: article PMC12820563
Some of the results follow. The list includes weakly bound sequences.

Molecular target: T1, MBP-FoxP3dN (UniProt Q99JB6)
T1 sequence: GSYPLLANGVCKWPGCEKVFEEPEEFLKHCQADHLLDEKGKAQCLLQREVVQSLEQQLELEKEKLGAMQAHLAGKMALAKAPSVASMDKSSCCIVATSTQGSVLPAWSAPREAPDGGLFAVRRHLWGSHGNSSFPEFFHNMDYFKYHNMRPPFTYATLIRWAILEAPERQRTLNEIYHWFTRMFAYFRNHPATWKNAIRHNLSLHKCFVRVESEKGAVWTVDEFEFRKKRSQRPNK
Assay: PD-seq (MBP pull-down with sequencing)
Conditions: 20 mM Tris-HCl pH 7.5, 100 mM NaCl, 1.5 mM MgCl2, 0.4 uM protein, 0.1 uM dsDNA library, 30 min, room temperature, amylose pull-down; high values mean tight binding; double strand, one strand shown

Sequence | binding signal (RPM ratio (pull-down/input))
GATGATTGTTCTCCCAGCTGATGAATTCATCGGCTCGAGTAAACAAATTTTCCTAATCTTTCTGTTCAAGCGCCATCTAC | 0.265
GATGATTGTTCTCCCAGCTGATGAATTTGTCTCCTCGAGTAAACAAATTTTCCTAATCTTTCTGTTCAAGCGCCATCTAC | 2.93
GATGATTGTTCTCCCAGCTGATGAATTCGTCAAGTCGAGTAAACAAATTTTCCTAATCTTTCTGTTCAAGCGCCATCTAC | 0.32
GATGATTGTTCTCCCAGCTGATGAATTGGTGCGTTCGAGTAAACAAATTTTCCTAATCTTTCTGTTCAAGCGCCATCTAC | 1.84
GATGATTGTTCTCCCAGCTGATGAATTGGGGCTATCGAGTAAACAAATTTTCCTAATCTTTCTGTTCAAGCGCCATCTAC | 0.601
GATGATTGTTCTCCCAGCTGATGAATTAATATACTCGAGTAAACAAATTTTCCTAATCTTTCTGTTCAAGCGCCATCTAC | 1.38
GATGATTGTTCTCCCAGCTGATGAATTCCAGTGCTCGAGTAAACAAATTTTCCTAATCTTTCTGTTCAAGCGCCATCTAC | 0.41
GATGATTGTTCTCCCAGCTGATGAATTAAAGCTATCGAGTAAACAAATTTTCCTAATCTTTCTGTTCAAGCGCCATCTAC | 0.683
GATGATTGTTCTCCCAGCTGATGAATTGCAGCACTCGAGTAAACAAATTTTCCTAATCTTTCTGTTCAAGCGCCATCTAC | 0.947
GATGATTGTTCTCCCAGCTGATGAATTTTCCTGTTCGAGTAAACAAATTTTCCTAATCTTTCTGTTCAAGCGCCATCTAC | 0.246
GATGATTGTTCTCCCAGCTGATGAATTTTACCATTCGAGTAAACAAATTTTCCTAATCTTTCTGTTCAAGCGCCATCTAC | 0.391
GATGATTGTTCTCCCAGCTGATGAATTATTTCGCTCGAGTAAACAAATTTTCCTAATCTTTCTGTTCAAGCGCCATCTAC | 0.356
GATGATTGTTCTCCCAGCTGATGAATTTTTAGGCTCGAGTAAACAAATTTTCCTAATCTTTCTGTTCAAGCGCCATCTAC | 0.257
GATGATTGTTCTCCCAGCTGATGAATTCGCCAAATCGAGTAAACAAATTTTCCTAATCTTTCTGTTCAAGCGCCATCTAC | 0.213
GATGATTGTTCTCCCAGCTGATGAATTGAAGAGGTCGAGTAAACAAATTTTCCTAATCTTTCTGTTCAAGCGCCATCTAC | 0.188
GATGATTGTTCTCCCAGCTGATGAATTACCGAGATCGAGTAAACAAATTTTCCTAATCTTTCTGTTCAAGCGCCATCTAC | 0.258
GATGATTGTTCTCCCAGCTGATGAATTTTCTTCATCGAGTAAACAAATTTTCCTAATCTTTCTGTTCAAGCGCCATCTAC | 0.275
GATGATTGTTCTCCCAGCTGATGAATTCGCCATTTCGAGTAAACAAATTTTCCTAATCTTTCTGTTCAAGCGCCATCTAC | 1.75
GATGATTGTTCTCCCAGCTGATGAATTACGGATTTCGAGTAAACAAATTTTCCTAATCTTTCTGTTCAAGCGCCATCTAC | 0.374
GATGATTGTTCTCCCAGCTGATGAATTAAGCGCCTCGAGTAAACAAATTTTCCTAATCTTTCTGTTCAAGCGCCATCTAC | 1.4
GATGATTGTTCTCCCAGCTGATGAATTAGCGAGTTCGAGTAAACAAATTTTCCTAATCTTTCTGTTCAAGCGCCATCTAC | 0.547

Sequence | binding signal (RPM ratio (pull-down/input))
GATGATTGTTCTCCCAGCTGATGAATTCCACCGTTCGAGTAAACAAATTTTCCTAATCTTTCTGTTCAAGCGCCATCTAC | 0.359
GATGATTGTTCTCCCAGCTGATGAATTAGTTTACTCGAGTAAACAAATTTTCCTAATCTTTCTGTTCAAGCGCCATCTAC | 5.83
GATGATTGTTCTCCCAGCTGATGAATTAAATCGCTCGAGTAAACAAATTTTCCTAATCTTTCTGTTCAAGCGCCATCTAC | 0.294
GATGATTGTTCTCCCAGCTGATGAATTGGGGGCTTCGAGTAAACAAATTTTCCTAATCTTTCTGTTCAAGCGCCATCTAC | 0.475
GATGATTGTTCTCCCAGCTGATGAATTTATATTGTCGAGTAAACAAATTTTCCTAATCTTTCTGTTCAAGCGCCATCTAC | 2.37
GATGATTGTTCTCCCAGCTGATGAATTACTTCGCTCGAGTAAACAAATTTTCCTAATCTTTCTGTTCAAGCGCCATCTAC | 0.286
GATGATTGTTCTCCCAGCTGATGAATTACTGAGTTCGAGTAAACAAATTTTCCTAATCTTTCTGTTCAAGCGCCATCTAC | 0.515
GATGATTGTTCTCCCAGCTGATGAATTTGTAATGTCGAGTAAACAAATTTTCCTAATCTTTCTGTTCAAGCGCCATCTAC | 3.87
GATGATTGTTCTCCCAGCTGATGAATTTCGCTATTCGAGTAAACAAATTTTCCTAATCTTTCTGTTCAAGCGCCATCTAC | 2.44
GATGATTGTTCTCCCAGCTGATGAATTGCATTGATCGAGTAAACAAATTTTCCTAATCTTTCTGTTCAAGCGCCATCTAC | 2.27
GATGATTGTTCTCCCAGCTGATGAATTAGACATTTCGAGTAAACAAATTTTCCTAATCTTTCTGTTCAAGCGCCATCTAC | 0.714
GATGATTGTTCTCCCAGCTGATGAATTAAGGCGATCGAGTAAACAAATTTTCCTAATCTTTCTGTTCAAGCGCCATCTAC | 0.729
GATGATTGTTCTCCCAGCTGATGAATTCCGACTCTCGAGTAAACAAATTTTCCTAATCTTTCTGTTCAAGCGCCATCTAC | 2.16
GATGATTGTTCTCCCAGCTGATGAATTCAGGCGTTCGAGTAAACAAATTTTCCTAATCTTTCTGTTCAAGCGCCATCTAC | 1.09
GATGATTGTTCTCCCAGCTGATGAATTGAGGGCATCGAGTAAACAAATTTTCCTAATCTTTCTGTTCAAGCGCCATCTAC | 0.782
GATGATTGTTCTCCCAGCTGATGAATTAAGAGGTTCGAGTAAACAAATTTTCCTAATCTTTCTGTTCAAGCGCCATCTAC | 0.358
GATGATTGTTCTCCCAGCTGATGAATTGTATTAGTCGAGTAAACAAATTTTCCTAATCTTTCTGTTCAAGCGCCATCTAC | 3.73
GATGATTGTTCTCCCAGCTGATGAATTTATGCCATCGAGTAAACAAATTTTCCTAATCTTTCTGTTCAAGCGCCATCTAC | 3.33
GATGATTGTTCTCCCAGCTGATGAATTAATGCGCTCGAGTAAACAAATTTTCCTAATCTTTCTGTTCAAGCGCCATCTAC | 2.16
GATGATTGTTCTCCCAGCTGATGAATTCCCCTCGTCGAGTAAACAAATTTTCCTAATCTTTCTGTTCAAGCGCCATCTAC | 0.241
GATGATTGTTCTCCCAGCTGATGAATTGTTACGATCGAGTAAACAAATTTTCCTAATCTTTCTGTTCAAGCGCCATCTAC | 0.792

Sequence | binding signal (RPM ratio (pull-down/input))
GATGATTGTTCTCCCAGCTGATGAATTGTGCCGATCGAGTAAACAAATTTTCCTAATCTTTCTGTTCAAGCGCCATCTAC | 1.02
GATGATTGTTCTCCCAGCTGATGAATTGCTCCCTTCGAGTAAACAAATTTTCCTAATCTTTCTGTTCAAGCGCCATCTAC | 0.468
GATGATTGTTCTCCCAGCTGATGAATTAGCCTCGTCGAGTAAACAAATTTTCCTAATCTTTCTGTTCAAGCGCCATCTAC | 0.702
GATGATTGTTCTCCCAGCTGATGAATTATTGTTTTCGAGTAAACAAATTTTCCTAATCTTTCTGTTCAAGCGCCATCTAC | 3.7
GATGATTGTTCTCCCAGCTGATGAATTTAAAACGTCGAGTAAACAAATTTTCCTAATCTTTCTGTTCAAGCGCCATCTAC | 0.239
GATGATTGTTCTCCCAGCTGATGAATTTTGTCCCTCGAGTAAACAAATTTTCCTAATCTTTCTGTTCAAGCGCCATCTAC | 2.21
GATGATTGTTCTCCCAGCTGATGAATTGATGGAATCGAGTAAACAAATTTTCCTAATCTTTCTGTTCAAGCGCCATCTAC | 0.283
GATGATTGTTCTCCCAGCTGATGAATTATCGTGTTCGAGTAAACAAATTTTCCTAATCTTTCTGTTCAAGCGCCATCTAC | 0.652
GATGATTGTTCTCCCAGCTGATGAATTGTATTACTCGAGTAAACAAATTTTCCTAATCTTTCTGTTCAAGCGCCATCTAC | 1.8
GATGATTGTTCTCCCAGCTGATGAATTTCAGACTTCGAGTAAACAAATTTTCCTAATCTTTCTGTTCAAGCGCCATCTAC | 0.327
GATGATTGTTCTCCCAGCTGATGAATTCGGGAGGTCGAGTAAACAAATTTTCCTAATCTTTCTGTTCAAGCGCCATCTAC | 0.209
GATGATTGTTCTCCCAGCTGATGAATTCCCGCACTCGAGTAAACAAATTTTCCTAATCTTTCTGTTCAAGCGCCATCTAC | 0.458
GATGATTGTTCTCCCAGCTGATGAATTGCAAAACTCGAGTAAACAAATTTTCCTAATCTTTCTGTTCAAGCGCCATCTAC | 0.671
GATGATTGTTCTCCCAGCTGATGAATTCGCAAGCTCGAGTAAACAAATTTTCCTAATCTTTCTGTTCAAGCGCCATCTAC | 0.44
GATGATTGTTCTCCCAGCTGATGAATTAGCCTAATCGAGTAAACAAATTTTCCTAATCTTTCTGTTCAAGCGCCATCTAC | 0.387
GATGATTGTTCTCCCAGCTGATGAATTGGTCAGTTCGAGTAAACAAATTTTCCTAATCTTTCTGTTCAAGCGCCATCTAC | 0.364
GATGATTGTTCTCCCAGCTGATGAATTCTGCATGTCGAGTAAACAAATTTTCCTAATCTTTCTGTTCAAGCGCCATCTAC | 5.95
GATGATTGTTCTCCCAGCTGATGAATTCTGCGGCTCGAGTAAACAAATTTTCCTAATCTTTCTGTTCAAGCGCCATCTAC | 1.01
GATGATTGTTCTCCCAGCTGATGAATTTCACGGATCGAGTAAACAAATTTTCCTAATCTTTCTGTTCAAGCGCCATCTAC | 0.176
GATGATTGTTCTCCCAGCTGATGAATTTAACCCCTCGAGTAAACAAATTTTCCTAATCTTTCTGTTCAAGCGCCATCTAC | 0.318
GATGATTGTTCTCCCAGCTGATGAATTGGAGCAGTCGAGTAAACAAATTTTCCTAATCTTTCTGTTCAAGCGCCATCTAC | 0.328
